# Measured values taken from the supplement of paper PMC10037445.
# “And” between values parts separate entries of the source, which are not always exact repeats. Equal entries are not always repeated. In all, about 2,900 compounds were measured (“IRF Lucia reporter activity, fold change vs agonist alone”: median about 0.9, highest 2% from about 2.8 on). This is one part of the list.
# Legend:
# RAW-Dual [1] = assay: IRF Lucia reporter activity, fold change vs agonist alone; higher = enhanced IRF activity; conditions: library stock concentration (final ~1000-fold dilution): 10 mM, agonist: MPLA (TLR4) […]
# Method in brief: (§1)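 Cytotoxic wells were those whose IncuCyte confluency was below 70% of agonist controls in both mask sets. The cells were RAW-Dual macrophages at 50,000 cells/well in DMEM on 384-well plates, dosed with 50 nL of library stock by pin tool, stimulated with a PRR agonist 1 h later, and kept at 37 °C, 5% CO2 for 20 hours. IRF and NF-κB reporter activity, as fold change over agonist-alone wells, came from supernatant read by QuantiLuc luminescence and QuantiBlue absorbance, respectively.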
# RAW-Dual [2] = assay: IRF Lucia reporter activity, fold change vs agonist alone; cytotoxicity flag (confluency mask): not cytotoxic; higher = enhanced IRF activity
# Method in brief: as §1
# RAW-Dual [3] = assay: IRF Lucia reporter activity, fold change vs agonist alone; cytotoxicity flag (confluency mask): cytotoxic (confluency <70% of control); higher = enhanced IRF activity
# Method in brief: as §1
# [4] = cytotoxicity flag (confluency mask): not cytotoxic
# [5] = agonist: 3'3'-cGAMP (STING) 10 ug/mL
# [6] = cytotoxicity flag (confluency mask): cytotoxic (confluency <70% of control)
compound,measurement,setting,value
COc1cccc2oc(-c3ccccc3)cc(=O)c12,IRF Lucia reporter activity,RAW-Dual [1]; [4],0.94
COc1cccc2oc(-c3ccccc3)cc(=O)c12 (library stock concentration (final ~1000-fold dilution): 10 mM),IRF Lucia reporter activity,RAW-Dual [2]; [5],0.981
same,IRF Lucia reporter activity,RAW-Dual [2]; agonist: LPS (TLR4) 0.1 ug/mL,0.95
CC(C)NCC(O)COc1ccc(CCOCC2CC2)cc1 (stereo unspecified) (library stock concentration (final ~1000-fold dilution): 10 mM),IRF Lucia reporter activity,RAW-Dual [2]; [5],1.04 and 0.934
same,IRF Lucia reporter activity,RAW-Dual [2]; agonist: LPS (TLR4) 0.1 ug/mL,1.28 and 0.987
CCCc1nn(C)c2c(=O)[nH]c(-c3cc(S(=O)(=O)N4CCN(C)CC4)ccc3OCC)nc12.O=C(O)CC(O)(CC(=O)O)C(=O)O (library stock concentration (final ~1000-fold dilution): 10 mM),IRF Lucia reporter activity,RAW-Dual [2]; [5],1.05
same,IRF Lucia reporter activity,RAW-Dual [2]; agonist: LPS (TLR4) 0.1 ug/mL,0.892
CCCc1nn(C)c2c(=O)[nH]c(-c3cc(S(=O)(=O)N4CCN(C)CC4)ccc3OCC)nc12.O=C(O)CC(O)(CC(=O)O)C(=O)O,IRF Lucia reporter activity,RAW-Dual [1]; [4],0.761
Cc1c(C(=O)NN2CCCCC2)nn(-c2ccc(Cl)cc2Cl)c1-c1ccc(I)cc1,IRF Lucia reporter activity,RAW-Dual [1]; [4],1.48
Cc1c(C(=O)NN2CCCCC2)nn(-c2ccc(Cl)cc2Cl)c1-c1ccc(I)cc1 (library stock concentration (final ~1000-fold dilution): 10 mM),IRF Lucia reporter activity,RAW-Dual [2]; [5],0.956
same,IRF Lucia reporter activity,RAW-Dual [2]; agonist: LPS (TLR4) 0.1 ug/mL,0.894
CCc1nc(N)nc(N)c1-c1ccc(Cl)cc1 (library stock concentration (final ~1000-fold dilution): 10 mM),IRF Lucia reporter activity,RAW-Dual [2]; [5],0.965
same,IRF Lucia reporter activity,RAW-Dual [2]; agonist: LPS (TLR4) 0.1 ug/mL,0.757
CCc1nc(N)nc(N)c1-c1ccc(Cl)cc1,IRF Lucia reporter activity,RAW-Dual [1]; [4],0.949
CC12C=CC(=O)NC1CCC1C2CCC2(C)C(C(=O)Nc3cc(C(F)(F)F)ccc3C(F)(F)F)CCC12 (stereo unspecified),IRF Lucia reporter activity,RAW-Dual [1]; [4],1.08
CC12C=CC(=O)NC1CCC1C2CCC2(C)C(C(=O)Nc3cc(C(F)(F)F)ccc3C(F)(F)F)CCC12 (stereo unspecified) (library stock concentration (final ~1000-fold dilution): 10 mM),IRF Lucia reporter activity,RAW-Dual [2]; [5],1.22
same,IRF Lucia reporter activity,RAW-Dual [2]; agonist: LPS (TLR4) 0.1 ug/mL,1.38
Cl.Cl.OCCN1CCN(CCCN2c3ccccc3Sc3ccc(C(F)(F)F)cc32)CC1,IRF Lucia reporter activity,RAW-Dual [1]; [6],1.74
Cl.Cl.OCCN1CCN(CCCN2c3ccccc3Sc3ccc(C(F)(F)F)cc32)CC1 (library stock concentration (final ~1000-fold dilution): 10 mM),IRF Lucia reporter activity,RAW-Dual [3]; [5],0.68
same,IRF Lucia reporter activity,RAW-Dual [3]; agonist: LPS (TLR4) 0.1 ug/mL,1.95
COc1ccc(NS(=O)(=O)c2sc3ccc(Cl)cc3c2C)cc1N1CCNCC1,IRF Lucia reporter activity,RAW-Dual [1]; [6],1.15
COc1ccc(NS(=O)(=O)c2sc3ccc(Cl)cc3c2C)cc1N1CCNCC1 (library stock concentration (final ~1000-fold dilution): 10 mM),IRF Lucia reporter activity,RAW-Dual [3]; [5],0.367
same,IRF Lucia reporter activity,RAW-Dual [3]; agonist: LPS (TLR4) 0.1 ug/mL,1.26
COc1ccc2c(c1O)-c1c(O)c(OC)cc3c1C(C2)[N+](C)(C)CC3 (stereo unspecified) (library stock concentration (final ~1000-fold dilution): 10 mM),IRF Lucia reporter activity,RAW-Dual [2]; [5],1.06 and 0.922
same,IRF Lucia reporter activity,RAW-Dual [2]; agonist: LPS (TLR4) 0.1 ug/mL,0.863 and 0.964
N#CC1CC2CC2N1C(=O)C(N)C12CC3CC(CC(O)(C3)C1)C2.O (stereo unspecified) (library stock concentration (final ~1000-fold dilution): 10 mM),IRF Lucia reporter activity,RAW-Dual [2]; [5],0.85
same,IRF Lucia reporter activity,RAW-Dual [2]; agonist: LPS (TLR4) 0.1 ug/mL,0.935
N#CC1CC2CC2N1C(=O)C(N)C12CC3CC(CC(O)(C3)C1)C2.O (stereo unspecified),IRF Lucia reporter activity,RAW-Dual [1]; [4],0.817
CC1CNc2c(cccc2S(=O)(=O)NC(CCCNC(=N)N)C(=O)N2CCC(C)CC2C(=O)O)C1 (stereo unspecified) (library stock concentration (final ~1000-fold dilution): 10 mM),IRF Lucia reporter activity,RAW-Dual [2]; [5],1.01
same,IRF Lucia reporter activity,RAW-Dual [2]; agonist: LPS (TLR4) 0.1 ug/mL,0.919
CC1CNc2c(cccc2S(=O)(=O)NC(CCCNC(=N)N)C(=O)N2CCC(C)CC2C(=O)O)C1 (stereo unspecified),IRF Lucia reporter activity,RAW-Dual [1]; [4],0.948
COc1cc(OC2CCN(C)CC2)ccc1Nc1ncc2c(n1)n(C1CCCC1)c(=O)n2C,IRF Lucia reporter activity,RAW-Dual [1]; [4],0.647
COc1cc(OC2CCN(C)CC2)ccc1Nc1ncc2c(n1)n(C1CCCC1)c(=O)n2C (library stock concentration (final ~1000-fold dilution): 10 mM),IRF Lucia reporter activity,RAW-Dual [2]; [5],0.696
same,IRF Lucia reporter activity,RAW-Dual [2]; agonist: LPS (TLR4) 0.1 ug/mL,0.362
CC(C)[N+](C)(CCOC(=O)C1c2ccccc2Oc2ccccc21)C(C)C,IRF Lucia reporter activity,RAW-Dual [1]; [4],1.04
CC(C)[N+](C)(CCOC(=O)C1c2ccccc2Oc2ccccc21)C(C)C (library stock concentration (final ~1000-fold dilution): 10 mM),IRF Lucia reporter activity,RAW-Dual [2]; [5],1.06
same,IRF Lucia reporter activity,RAW-Dual [2]; agonist: LPS (TLR4) 0.1 ug/mL,1.25
CC(C)=CCC/C(C)=C/CC/C(C)=C/CC/C=C(\C)CC/C=C(\C)CCC=C(C)C (library stock concentration (final ~1000-fold dilution): 10 mM),IRF Lucia reporter activity,RAW-Dual [2]; [5],1.02
same,IRF Lucia reporter activity,RAW-Dual [2]; agonist: LPS (TLR4) 0.1 ug/mL,1.04
COc1cc2c(Oc3ccc(NC(=O)C4(C(=O)Nc5ccc(F)cc5)CC4)cc3F)ccnc2cc1OCCCN1CCOCC1,IRF Lucia reporter activity,RAW-Dual [1]; [4],0.0626
COc1cc2c(Oc3ccc(NC(=O)C4(C(=O)Nc5ccc(F)cc5)CC4)cc3F)ccnc2cc1OCCCN1CCOCC1 (library stock concentration (final ~1000-fold dilution): 10 mM),IRF Lucia reporter activity,RAW-Dual [2]; [5],0.016
same,IRF Lucia reporter activity,RAW-Dual [2]; agonist: LPS (TLR4) 0.1 ug/mL,0.0481
CC(=O)c1ccc2c(c1)c1cc(C(C)=O)ccc1n2CCNC(C)C (library stock concentration (final ~1000-fold dilution): 10 mM),IRF Lucia reporter activity,RAW-Dual [3]; [5],0.0136
same,IRF Lucia reporter activity,RAW-Dual [3]; agonist: LPS (TLR4) 0.1 ug/mL,0.0204
COc1cc(N2CCC(N(C)C)CC2)ccc1Nc1ncc(Cl)c(Nc2ccccc2P(C)(C)=O)n1,IRF Lucia reporter activity,RAW-Dual [1]; [4],0.484
COc1cc(N2CCC(N(C)C)CC2)ccc1Nc1ncc(Cl)c(Nc2ccccc2P(C)(C)=O)n1 (library stock concentration (final ~1000-fold dilution): 10 mM),IRF Lucia reporter activity,RAW-Dual [2]; [5],0.218
same,IRF Lucia reporter activity,RAW-Dual [2]; agonist: LPS (TLR4) 0.1 ug/mL,0.111
Cl.Clc1ccc2nsnc2c1NC1=NCCN1,IRF Lucia reporter activity,RAW-Dual [1]; [4],0.746
Cl.Clc1ccc2nsnc2c1NC1=NCCN1 (library stock concentration (final ~1000-fold dilution): 10 mM),IRF Lucia reporter activity,RAW-Dual [2]; [5],0.945
same,IRF Lucia reporter activity,RAW-Dual [2]; agonist: LPS (TLR4) 0.1 ug/mL,1.05
Nc1ccccc1S(N)(=O)=O,IRF Lucia reporter activity,RAW-Dual [1]; [4],1
Nc1ccccc1S(N)(=O)=O (library stock concentration (final ~1000-fold dilution): 10 mM),IRF Lucia reporter activity,RAW-Dual [2]; [5],1.06
same,IRF Lucia reporter activity,RAW-Dual [2]; agonist: LPS (TLR4) 0.1 ug/mL,0.92
CNC(C)C(=O)NC(C(=O)N1CCCC1C(=O)Nc1snnc1-c1ccccc1)C1CCCCC1 (stereo unspecified) (library stock concentration (final ~1000-fold dilution): 10 mM),IRF Lucia reporter activity,RAW-Dual [2]; [5],0.622
same,IRF Lucia reporter activity,RAW-Dual [2]; agonist: LPS (TLR4) 0.1 ug/mL,0.38
CNC(C)C(=O)NC(C(=O)N1CCCC1C(=O)Nc1snnc1-c1ccccc1)C1CCCCC1 (stereo unspecified),IRF Lucia reporter activity,RAW-Dual [1]; [4],0.481
